About 530 (0.13%) of roughly 410,000 compounds were called active. Inconclusive results, whose numbers are uncertain, are shown with a selection of clear calls. Calls come from the whole dose curve; as a rule, active = well fitted inhibition curve with a large enough effect; inconclusive = small, poorly fitted or top-dose-only effect, or another doubt; inactive = no such curve, though single readings can be large or run the other way. A potency beside an inconclusive call is a rough fit, not a confirmed value.
Assay: qHTS of GLP-1 Receptor Inverse Agonists: Cytotox Screen
Details: HEK293 cAMP-luciferase reporter cells, luminescence, 24 h; activity change, negative = inhibition: at 38.3 µM (top of the series) unless noted
How it was run: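 Quantitative HTS format, 1536 wells, 200 cells/uL seeded. Compounds: 23 nL, 24 h, 37 °C. Detection: luciferase reagent, luminescence at 12 min RT; decreased signal taken as cytotoxic.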
In the case of COc1ccc(N2CCN(S(=O)(=O)c3ccc4oc(=O)c5ncn(C)c5c4c3)CC2)cc1, the Potency was “inactive”.
For O=C(CSc1nc2ccccc2nc1Cc1ccc(Cl)cc1)N1CCc2ccccc21, the Potency was inconclusive: 0.501 µM [inhibitor, full curve, poor fit].
In the case of O=C(Nc1cccc(-c2cnc3ccccc3n2)c1)c1cccc(NC(=O)c2ccco2)c1, the Potency was inconclusive: 8.91 µM [inhibitor, partial curve, poor fit].
In the case of COc1cc(C(CC(=O)N2CCN(c3ccccc3)CC2)c2c(OC)cc(OC)c3ccc(=O)oc23)cc(OC)c1OC (stereo not drawn), the Potency was inconclusive: 2.51 µM [inhibitor, full curve, poor fit].
In the case of NC(N)=NS(=O)(=O)c1ccc(NC(=S)NC(=O)c2ccc(Br)cc2)cc1, the Potency was inconclusive: 5.01 µM [inhibitor, partial curve, poor fit].
For COc1cc(C)ccc1S(=O)(=O)NC(=O)C1(C)CCN1C(=O)COc1ccc(Cl)cc1 (stereo not drawn), the Potency was “inactive”.
In the case of CCN(CC(=O)Nc1ccccc1OC)CC(=O)Nc1ccccc1-c1ccccc1, the Potency was inconclusive: 14.1 µM [inhibitor, single point].
For CCOC(=O)C1CCN(Cc2cc(Cl)c3ccccc3c2O)CC1, the Potency was inconclusive: 12.6 µM [inhibitor, single point].
With O=C(Cc1cccs1)NCc1cccs1 the Potency was “inactive”.
With COc1cc(C(=O)NCCCc2nc3ccccc3n2CC(C)C)cc(OC)c1OC the Potency was “inactive”.
For CCC1(C)Cc2ccccc2-c2nc3n(c(=O)c21)CCS3 (stereo not drawn), the Potency was “inactive”.
With C/C(=N\Nc1nnc2c3ccccc3n(C)c2n1)c1ccc(C)o1 the Potency was inconclusive: 28.2 µM [inhibitor, single point].
In the case of CCCCN(CCCC)S(=O)(=O)c1ccc(NC(=O)c2cccs2)cc1, the Potency was inconclusive: 11.2 µM [inhibitor, single point].
In the case of CCS(=O)(=O)N1CCc2cc(C(=O)Nc3ccc(OC)c(Cl)c3)ccc21, the Potency was inconclusive: 1.12 µM [inhibitor, full curve, poor fit].
With CC(N=c1ccccn1C(=O)Nc1ccc(Cl)cc1)c1ccco1 (stereo not drawn) the Potency was “inactive”.
In the case of C/C(=N\NC(=O)c1ccc(Cl)cc1)c1cccs1, the Potency was “inactive”.
In the case of O=C(Nc1nc2ccccc2[nH]1)c1ccc(Cl)cc1, the Potency was inconclusive: 3.55 µM [inhibitor, partial curve, poor fit].
With Cc1ccc(CNc2nc(C)c(C(=O)N(C)C)s2)cc1 the Potency was “inactive”.
In the case of CN(C(=O)COC(=O)c1nc(Cl)c(Cl)c(Cl)c1Cl)C1CCS(=O)(=O)C1 (stereo not drawn), the Potency was inconclusive: 12.6 µM [inhibitor, single point].
In the case of CCc1ccc(N(C(=O)c2ccoc2C)C(C(=O)NC2CCCC2)c2ccc(OC)cc2)cc1 (stereo not drawn), the Potency was inconclusive: 28.2 µM [inhibitor, single point].
With CC(C)C[C@H]1CN=C(Nc2ccccc2)N1CC1CCCCCC1 the Potency was inconclusive: 28.2 µM [inhibitor, partial curve, poor fit].
For CCOC(=O)C1=C(C)N=c2s/c(=C3\C(=O)Nc4ccccc43)c(=O)n2C1c1ccc2c(c1)OCO2 (stereo not drawn), the Potency was inconclusive: 2.51 µM [inhibitor, partial curve].
In the case of Cc1ccc2c(c1)C(=O)C(=O)N2Cc1ccc(Br)cc1, the Potency was inconclusive: 31.6 µM [inhibitor, single point].
In the case of Cc1cccc2sc(N(CCN3CCOCC3)C(=O)CCS(=O)(=O)c3ccccc3)nc12, the Potency was inconclusive: 12.6 µM [inhibitor, single point].
For O=C1NC(c2ccccc2)=N/C1=C/c1ccco1, the Potency was inconclusive: 25.1 µM [inhibitor, single point].
For COc1ccc([C@H]2C[C@@H](n3cc(-c4ccc(F)cc4)nn3)[C@H](O)CN2Cc2cccs2)cc1, the Potency was inconclusive: 5.62 µM [inhibitor, partial curve, poor fit].
With C/C(=N\NC(=O)c1ccccc1)c1c(C)[nH]n(-c2ccccc2)c1=O the Potency was inconclusive: 1.41 µM [inhibitor, full curve, poor fit].
With CC(C)(C)NC(=O)c1ccc(NC(=O)c2ccccc2-c2ccccc2C(=O)O)cc1 the Potency was “inactive”.
With COc1cccc(CNC(=O)C(NS(=O)(=O)c2cccs2)C(C)C)c1 (stereo not drawn) the Potency was “inactive”.
With Cc1ccc(OCc2ccc(C(=O)NCC3CCCO3)cc2)cc1 (stereo not drawn) the Potency was “inactive”.
With CCn1ccc(C(=O)Nc2ncc(C)s2)n1 the Potency was “inactive”.
In the case of CC(NC(=S)NNS(=O)(=O)c1ccc(C(C)(C)C)cc1)c1ccccc1 (stereo not drawn), the Potency was inconclusive: 31.6 µM [inhibitor, single point].
In the case of N#Cc1c(N2C(=O)Nc3ccccc3N2O)sc2c1CCCC2, the activity change, negative = inhibition was inactive: 11.7% [at 7.66 µM].
With O=C(N/N=C/c1c[nH]c2ccccc12)c1cc(-c2ccccc2)n[nH]1 the Potency was inconclusive: 12.6 µM [inhibitor, single point].
In the case of Cc1nc2ccccc2nc1N/N=C/c1ccc(O)cc1O, the Potency was inconclusive: 10 µM [inhibitor, single point].
In the case of CCCN(CC(=O)Nc1cc(Cl)cc(Cl)c1)CC(=O)Nc1ccc(F)c(F)c1F, the activity change, negative = inhibition was inactive: 1.79% [at 1.53 µM].
In the case of COc1ccc(NC(=S)N(CCCN2CCC(C)CC2)Cc2cccs2)cc1, the Potency was inconclusive: 15.8 µM [inhibitor, single point].
In the case of CC(OCC(O)CN(C)CCOc1ccccc1)c1ccc(Cl)cc1 (stereo not drawn), the Potency was inconclusive: 31.6 µM [inhibitor, single point].
For COc1ccc(Cl)cc1NC(=O)CNc1ccccc1CN(C)C1CCCCC1, the Potency was inconclusive: 12.6 µM [inhibitor, single point].
In the case of CCOC(=O)/C(C#N)=C/C1=C(N2CCCC2)CC(C)(C)OC1, the Potency was inconclusive: 10 µM [inhibitor, partial curve, poor fit].
With Clc1ccc(Cl)c(OCCN2CCOCC2)c1 the Potency was “inactive”.
For CN1CCN(C(=S)NC(=O)c2ccc(Br)cc2)CC1, the Potency was inconclusive: 2.82 µM [inhibitor, full curve].
For CCCCCC(=O)NC(=S)Nc1ccc(N2CCOCC2)cc1, the Potency was inconclusive: 10 µM [inhibitor, partial curve, poor fit].
For CCCn1c(SCc2nc(-c3cc(OC)ccc3OC)no2)nnc1-c1ccc(Cl)cc1, the Potency was “inactive”.
In the case of Cc1ccc(C(=O)Nc2ncc(Cc3ccc(SC(F)F)cc3)s2)cc1, the Potency was inconclusive: 28.2 µM [inhibitor, single point].
With CCc1ccc(C(N)=S)cc1 the Potency was inconclusive: 28.2 µM [inhibitor, single point].
For CCc1nc2ccc(C(=O)NCCc3ccccn3)cn2c1N(CC)CCOC, the Potency was “inactive”.
For CNc1c(NC(=O)c2cc(OC)cc(OC)c2)c(=O)oc2ccccc12, the Potency was “inactive”.
In the case of Cc1ccc(N2C(=O)CC(Sc3nc(C)cc(C)n3)C2=O)cc1 (stereo not drawn), the Potency was inconclusive: 14.1 µM [inhibitor, single point].
With COC(=O)[C@]1(C)CCC[C@@]2(C)C3CC[C@@]4(C)C[C@]3(CCC21)CC(=O)N4Cc1ccc(OC)cc1 (stereo partly drawn) the Potency was inconclusive: 28.2 µM [inhibitor, single point].
With COc1ccc2c(c1)c(C(O)CN1CCC(Cc3ccccc3)CC1)c(C)n2C (stereo not drawn) the Potency was inconclusive: 10 µM [inhibitor, single point].
For CCOC(=O)C1CCN(S(=O)(=O)c2ccc3[nH]c(=O)oc3c2)CC1, the Potency was “inactive”.
In the case of COc1ccc(/C=C/CN2CCC(CO)(Cc3ccccc3Cl)CC2)cc1, the Potency was inconclusive: 28.2 µM [inhibitor, single point].
For Cc1cc(C)c2nc(N(CCCN(C)C)C(=O)C3=COCCO3)sc2c1, the Potency was inconclusive: 28.2 µM [inhibitor, single point].
In the case of O=C(CSc1nc2c(sc3ccccc32)c(=O)n1CCCN1CCCC1)NCc1ccco1, the Potency was inconclusive: 10 µM [inhibitor, single point].
With CCn1c2c(c(=O)n3ncc(C(=O)N4CCN(c5ccccc5)CC4)c13)CN(Cc1ccc(OC)cc1)CC2 the Potency was inconclusive: 14.1 µM [inhibitor, single point].
For O=C1CC(SC(=Nc2ccccc2)Nc2ccccc2)C(=O)N1c1cccc(Cl)c1 (stereo not drawn), the Potency was inconclusive: 25.1 µM [inhibitor, single point].
For COc1ccc(-c2cc(=O)n(CCC#N)[nH]2)cc1, the Potency was “inactive”.
For Cc1ccc(N2C(=O)CS/C2=C(\C(Cl)=C(Cl)Cl)[N+](=O)[O-])cc1, the Potency was inconclusive: 28.2 µM [inhibitor, single point].
With CCOC(=O)/C(C#N)=C\C1=C(N2CCCC2)CC(C)(CC)OC1 (stereo not drawn) the Potency was inconclusive: 10 µM [inhibitor, partial curve].
With [O-]/C(=C(\C(=S)Nc1cccc2ccccc12)[n+]1ccccc1)c1ccc2c(c1)OCCO2 the Potency was “inactive”.
With Cc1cc(Cl)c(OCCOCCN2CCN(C)CC2)c(Br)c1 the Potency was “inactive”.
With Cc1ccc2nc(-c3ccc(Cl)cc3)c(Cc3cccc(Cl)c3)n2c1 the Potency was inconclusive: 28.2 µM [inhibitor, single point].
For S=c1nc(NCc2cccc(Cl)c2)c2ccccc2[nH]1, the Potency was inconclusive: 28.2 µM [inhibitor, single point].
With C[C@H](CO)N1C[C@H](C)[C@H](CN(C)S(=O)(=O)c2ccccc2)Oc2ccc(NC(=O)NC3CCCCC3)cc2CC1=O the Potency was inconclusive: 28.2 µM [inhibitor, single point].
In the case of CCC(C)NCC(O)(c1ccc(Cl)cc1)c1ccc(Cl)cc1 (stereo not drawn), the Potency was inconclusive: 28.2 µM [inhibitor, single point].
For Cn1c(NC(=O)Cc2cccs2)cc(=O)n(C)c1=O, the Potency was inconclusive: 2.24 µM [inhibitor, full curve].
In the case of CC[C@]12C(=O)N(C)C[C@H]([C@@H]3C(=O)N(Cc4ccccc4)C(=O)[C@@H]31)N2C(=O)c1ccc(C(F)(F)F)cc1, the Potency was inconclusive: 3.16 µM [inhibitor, partial curve, poor fit].
% is set by controls: 0 for no effect and ±100 for the full control effect; potency is the fitted concentration of half-maximal effect.
